This is one part of the list.

The subject of assay [1] is HSkMC (human skeletal muscle cells). Briefly: cytotoxicity call (relative viability < 0.9). Particulars: 10 µM.
In assay [2] the test system is HepG2. Briefly: cytotoxicity call (relative viability < 0.9). Conditions: 10 µM.
The subject of assay [3] is S. aureus RN4220. Briefly: growth inhibition call (relative growth <= 0.2). Particulars: 50 µM.

As for `COc1ccccc1C#Cc1ccc2c(c1)O[C@@H](CN(C)Cc1cncnc1)[C@H](C)CN([C@@H](C)CO)S2(=O)=O`, the cytotoxicity call in assay [1] was “active”. Further, the cytotoxicity call in assay [2] is “inactive”. The growth inhibition call in assay [3] was “inactive”.
As to `COc1ccc(NC(=O)Nc2ccc3c(c2)C(=O)N([C@H](C)CO)C[C@H](C)[C@H](CN(C)Cc2ccc(C(=O)O)cc2)OCCCC[C@H](C)O3)cc1`, the cytotoxicity call in assay [1] and in assay [2] was “inactive” each time. The growth inhibition call in assay [3] is “inactive”.
On to `O=C(O)CCCNC(=O)c1ccccn1`, for which the cytotoxicity call in assay [1] and in assay [2] was “inactive” each time. Further, the growth inhibition call in assay [3] was “inactive”.
As for `COc1ccccc1C(=O)Nc1ccc2c(c1)C(=O)N(C)[C@H]1CC[C@H](CC(=O)NCCc3ccncc3)O[C@H]1CO2`, the cytotoxicity call in assay [1] and in assay [2] was “inactive” each time. Moreover, the growth inhibition call in assay [3] is “inactive”.
On to `C[C@@H]1CCCCO[C@@H](CN(C)Cc2ccc(Cl)c(Cl)c2)[C@H](C)CN([C@H](C)CO)C(=O)c2cc(NS(C)(=O)=O)ccc2O1`, for which the cytotoxicity call in assay [1] and in assay [2] was “inactive” each time. In addition, in assay [3], the growth inhibition call is “inactive”.
Regarding `C[C@H]1CN([C@@H](C)CO)C(=O)c2cccc(NS(=O)(=O)c3ccc(Cl)cc3)c2O[C@@H]1CN(C)Cc1ccc(-c2ccccc2)cc1`, the cytotoxicity call in assay [1] and in assay [2] was “inactive” each time. Further, the growth inhibition call in assay [3] was “inactive”.
For `COc1ccc(S(=O)(=O)Nc2ccc3c(c2)C(=O)N([C@@H](C)CO)C[C@@H](C)[C@@H](CN(C)C(=O)CCC(F)(F)F)OCCCC[C@H](C)O3)cc1`, the cytotoxicity call in assay [1] and in assay [2] was “inactive” in each case. Besides, in assay [3], the growth inhibition call is “inactive”.
`COc1ccc(S(=O)(=O)N[C@@H]2C=C[C@H](CC(=O)N3CCC(Cc4ccccc4)CC3)O[C@@H]2CO)cc1`: the cytotoxicity call in assay [1] and in assay [2] was “inactive” each time. The growth inhibition call in assay [3] is “inactive”.
Regarding `CO[C@@H](CN(C)S(=O)(=O)c1ccc(F)cc1)[C@H](C)CN([C@@H](C)CO)S(=O)(=O)c1cccc(Cl)c1`, the cytotoxicity call in assay [1] and in assay [2] was “inactive” throughout. Also, in assay [3], the growth inhibition call is “inactive”.
`CO[C@H]1O[C@H](CO)[C@@H](OC(=O)Nc2ccc(Br)cc2)[C@@H]2OC(=O)[C@H](Cc3cccc(Br)c3)C/C=C/C[C@@H](Cc3cccc(Br)c3)C(=O)O[C@@H]12`: the cytotoxicity call in assay [1] and in assay [2] was “inactive” in each case. Besides, the growth inhibition call in assay [3] was “inactive”.
`COc1ccccc1S(=O)(=O)N(C)C[C@H]1OCc2cnnn2CCCC(=O)N([C@@H](C)CO)C[C@H]1C`: the cytotoxicity call in assay [1] and in assay [2] was “inactive” throughout. For the same compound, the growth inhibition call in assay [3] was “inactive”.
For `C[C@@H]1CN([C@H](C)CO)C(=O)Cc2cc(NC(=O)Cc3cn(C)c4ccccc34)ccc2O[C@H]1CN(C)CC1CCCCC1`, the cytotoxicity call in assay [1] and in assay [2] was “inactive” in each case. The growth inhibition call in assay [3] is “inactive”.
As for `CC(C)NC(=O)N(C)C[C@H]1Oc2ccc(NC(=O)c3ccncc3)cc2CC(=O)N([C@@H](C)CO)C[C@@H]1C`, the cytotoxicity call in assay [1] and in assay [2] was “inactive” each time. In addition, the growth inhibition call in assay [3] was “inactive”.
Turning to `C[C@H](CO)N1C[C@H](C)[C@H](CN(C)Cc2ccc(-c3ccccc3)cc2)Oc2ccc(NS(=O)(=O)c3cccs3)cc2CC1=O`, the cytotoxicity call in assay [1] and in assay [2] was “inactive” each time. In addition, the growth inhibition call in assay [3] was “inactive”.
As to `C[C@H](CO)N1C[C@H](C)[C@@H](CN(C)Cc2ccc(C(F)(F)F)cc2)Oc2ccc(NC(=O)NC3CCCCC3)cc2CC1=O`, the cytotoxicity call in assay [1] and in assay [2] was “inactive” throughout. Also, in assay [3], the growth inhibition call was “inactive”.
With `CO[C@H]1CN(S(=O)(=O)c2cn(C)cn2)[C@H]2COC[C@@H]12`, the cytotoxicity call in assay [1] and in assay [2] was “inactive” in each case. The growth inhibition call in assay [3] is “inactive”.
Consider `C[C@@H]1CN([C@H](C)CO)C(=O)c2cc(-c3ccc(C(=O)N(C)C)cc3)cnc2O[C@H]1CN(C)C(=O)C1CC1`, for which the cytotoxicity call in assay [1] and in assay [2] was “inactive” each time. Also, the growth inhibition call in assay [3] was “inactive”.
Regarding `Cc1noc(C)c1NC(=O)Nc1ccc2c(c1)C(=O)N([C@@H](C)CO)C[C@H](C)[C@@H](CN(C)C(=O)Nc1cccc3ccccc13)OCCCC[C@H](C)O2`, the cytotoxicity call in assay [1] and in assay [2] was “inactive” each time. In addition, in assay [3], the growth inhibition call is “inactive”.
Regarding `C[C@H]1CN([C@@H](C)CO)C(=O)c2cc(NC(=O)Cn3cnnn3)ccc2O[C@H]1CN(C)CC1CC1`, the cytotoxicity call in assay [1] and in assay [2] was “inactive” in each case. Besides, in assay [3], the growth inhibition call was “inactive”.
Take `C[C@@H]1CN([C@@H](C)CO)C(=O)c2cccc(NC(=O)Nc3ccc(C(F)(F)F)cc3)c2O[C@H]1CN(C)C(=O)NC1CCCCC1`: the cytotoxicity call in assay [1] and in assay [2] was “active” each time. The growth inhibition call in assay [3] was “inactive”.
Regarding `COc1ccc(S(=O)(=O)N(C)C[C@@H]2Oc3ncc(-c4cccc(F)c4)cc3C(=O)N([C@H](C)CO)C[C@@H]2C)cc1`, the cytotoxicity call in assay [1] and in assay [2] was “inactive” throughout. In addition, the growth inhibition call in assay [3] was “inactive”.
As to `C[C@@H]1CN([C@H](C)CO)C(=O)c2cc(NC(=O)Nc3ccc(C(F)(F)F)cc3)ccc2O[C@@H](C)CCCCO[C@H]1CN(C)C(=O)NC1CCCCC1`, the cytotoxicity call in assay [1] and in assay [2] was “inactive” each time. Besides, in assay [3], the growth inhibition call was “inactive”.
Turning to `C[C@@H]1CCCCO[C@H](CN(C)Cc2ccccc2)[C@@H](C)CN([C@H](C)CO)C(=O)c2cc(NS(=O)(=O)c3ccccc3)ccc2O1`, the cytotoxicity call in assay [1] and in assay [2] was “inactive” each time. Moreover, the growth inhibition call in assay [3] was “inactive”.
On to `C[C@@H]1CN([C@H](C)CO)C(=O)c2cc(NC(=O)NC3CCCCC3)ccc2O[C@H]1CN(C)Cc1ccc(C(F)(F)F)cc1`, for which the cytotoxicity call in assay [1] and in assay [2] was “inactive” throughout. In assay [3], the growth inhibition call is “inactive”.
`NC[C@H]1O[C@H](O[C@@H]2[C@H](O)[C@@H](O[C@H]3O[C@H](CO)[C@@H](O)[C@H](N)[C@H]3O)[C@H](N)C[C@@H]2N)[C@H](O)[C@@H](O)[C@@H]1O`: the cytotoxicity call in assay [1] and in assay [2] was “inactive” in each case. The growth inhibition call in assay [3] is “inactive”.
On to `O=C1NCCOc2ccc([N+](=O)[O-])cc21`, for which the cytotoxicity call in assay [1] and in assay [2] was “inactive” in each case. Also, the growth inhibition call in assay [3] is “inactive”.
With `C[C@@H]1CN([C@@H](C)CO)C(=O)Cc2cc(NC(=O)Nc3cccc4ccccc34)ccc2O[C@H]1CN(C)S(=O)(=O)c1ccc(Cl)cc1`, the cytotoxicity call in assay [1] and in assay [2] was “inactive” throughout. The growth inhibition call in assay [3] was “inactive”.
With `COc1ccccc1C#Cc1ccc2c(c1)O[C@@H](CN(C)C(C)=O)[C@@H](C)CN([C@@H](C)CO)S2(=O)=O`, the cytotoxicity call in assay [1] and in assay [2] was “inactive” each time. Further, the growth inhibition call in assay [3] is “inactive”.
In the case of `COCC#Cc1cnc2c(c1)C(=O)N([C@H](C)CO)C[C@@H](C)[C@@H](CN(C)C(=O)Nc1ccccc1OC)O2`, the cytotoxicity call in assay [1] and in assay [2] was “inactive” each time. In assay [3], the growth inhibition call was “inactive”.
Regarding `Cc1ccc(S(=O)(=O)Nc2ccc3c(c2)C(=O)N([C@@H](C)CO)C[C@@H](C)[C@H](CN(C)C(=O)Nc2ccc(C(F)(F)F)cc2)OCCCC[C@@H](C)O3)cc1`, the cytotoxicity call in assay [1] and in assay [2] was “inactive” in each case. Also, in assay [3], the growth inhibition call was “inactive”.
For the compound `Cc1cc(C)c2ccc(Cl)nc2n1`, the cytotoxicity call in assay [1] and in assay [2] was “inactive” in each case. For the same compound, the growth inhibition call in assay [3] is “inactive”.
For the compound `Cc1ccc(S(=O)(=O)Nc2cccc3c2O[C@@H](CN(C)S(=O)(=O)c2ccccc2)[C@@H](C)CN([C@@H](C)CO)C3=O)cc1`, the cytotoxicity call in assay [1] and in assay [2] was “inactive” throughout. Also, the growth inhibition call in assay [3] is “inactive”.
Take `C[C@H]1CCCCO[C@@H](CN(C)C(=O)c2ccccc2)[C@@H](C)CN([C@@H](C)CO)C(=O)c2cc(NC(=O)c3ccccc3)ccc2O1`: the cytotoxicity call in assay [1] and in assay [2] was “inactive” throughout. In addition, the growth inhibition call in assay [3] is “inactive”.
In the case of `COc1cccc([C@@H](N)c2ccccc2)c1`, the cytotoxicity call in assay [1] and in assay [2] was “inactive” throughout. For the same compound, the growth inhibition call in assay [3] is “inactive”.
As to `C[C@@H]1CN([C@H](C)CO)C(=O)c2cc(NC(=O)Nc3cccc4ccccc34)ccc2O[C@@H](C)CCCCO[C@H]1CN(C)S(=O)(=O)c1cccs1`, the cytotoxicity call in assay [1] and in assay [2] was “inactive” in each case. Moreover, the growth inhibition call in assay [3] was “inactive”.
As to `C[C@@H]1CN([C@@H](C)CO)C(=O)c2cccc(NC(=O)Nc3ccccc3)c2O[C@@H]1CN(C)S(C)(=O)=O`, the cytotoxicity call in assay [1] and in assay [2] was “inactive” in each case. In assay [3], the growth inhibition call is “inactive”.
For `C[C@H](CO)N1C[C@H](C)[C@H](CN(C)Cc2ccc(C(=O)O)cc2)Oc2ccc(NC(=O)Nc3ccc(C(F)(F)F)cc3)cc2CC1=O`, the cytotoxicity call in assay [1] and in assay [2] was “inactive” each time. Further, the growth inhibition call in assay [3] is “inactive”.
On to `CN1C(=O)c2cc(NC(=O)C3CCC3)ccc2OC[C@H]2O[C@H](CC(=O)NCCc3ccncc3)CC[C@H]21`, for which the cytotoxicity call in assay [1] and in assay [2] was “inactive” in each case. Also, the growth inhibition call in assay [3] is “inactive”.
For the compound `C[C@@H]1CCCCO[C@@H](CN(C)C(=O)Nc2cccc3ccccc23)[C@H](C)CN([C@@H](C)CO)C(=O)c2cc(NC(=O)C3CCCCC3)ccc2O1`, the cytotoxicity call in assay [1] and in assay [2] was “inactive” throughout. For the same compound, the growth inhibition call in assay [3] was “inactive”.
`COCC(=O)N1CC[C@]2(CC1)CN(Cc1cccc(c1)OC)[C@H](CO)c1c2c2ccc(cc2n1C)OC`: the cytotoxicity call in assay [1] and in assay [2] was “inactive” each time. Also, the growth inhibition call in assay [3] was “inactive”.
In the case of `COc1ccc(NC(=O)N(C)C[C@H]2Oc3ccc(NC(=O)CCN4CCOCC4)cc3CC(=O)N([C@H](C)CO)C[C@H]2C)cc1`, the cytotoxicity call in assay [1] and in assay [2] was “inactive” throughout. For the same compound, the growth inhibition call in assay [3] was “inactive”.

For the origin of these results see the antibiotic and cytotoxicity screens of Wong et al. (2023).
